Assay results reported in the RNAGym collection of RNA variant scans (doi:10.1073/pnas.2313332121).
Variants at the floor of the assay are shown more often than the library holds them.

B1: TPR 5TU (parent)
chain: GGAUCUUCUCGAUCUAACAAAAAAGACAAAUCUGCCACAAAGCUUGAGAGCAUCUUCGGAUGCAGAGGCGGCAGCCUUCGGUGGCGCGAUAGCGCCAACGUUCUCAACUAUGACACGCAAAACGCGUGCUCCGUUGAAUGGAGUUUAUCAUG

Variants of: B1
Test: polymerase ribozyme fitness, log enrichment relative to wild type (log ratio); higher = more active; in vitro selection for triplet polymerase activity
Summary of the method: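 Mutant libraries were PCR-built and transcribed for each subunit of a heterodimeric triplet polymerase ribozyme and selected for one round in triplicate at −7 °C, frozen, before gel excision of extended constructs and streptavidin-bead capture. Input and output libraries were Illumina-sequenced, keeping genotypes with ≥10 input reads and ≥1 read per output. Fitness is a logarithmic ratio of genotype to wild-type enrichment, in base 2, using inverse-variance-weighted replicate averages.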

Variant	polymerase ribozyme fitness (log ratio)
A17U G59A G81U G83U C93U U127A G128A A147G	≤ -4.2
A17U C32A G34U C35U A39C A49G A60G G88A C93U C95G A120G A147C	≤ -4.2
C18G A23C U44A C87A C99U C116U	≤ -4.2
A17U C27U A41U G58A C79G C87G A97U C99A	≤ -4.2
C18G A24G A26C U78A G80C A91U C99U	≤ -4.2
A17C U33A G48A A91C	≤ -4.2
A17G G59A U77G A91C	≤ -4.2
A17U A29C C54G C125U G136C	≤ -4.2
A17G A37G A40G C95A A120C C129U	≤ -4.2
A17U C105A	-1.28
A17G C35U G74C C105G A150C	≤ -4.2
A17G A60G C87A U109A C132G	≤ -4.2
A17G U31C C35G G86A A121U	-4.19
A17G A28U G50C A98G A115C A121G	≤ -4.2
A17C C54G G70C C85U A110C	≤ -4.2
A17U G50U G88C C114G G141C	≤ -4.2
A17U A29U G42C U61A G84A A97U U102G A107U C108G G141C U145C	≤ -4.2
A17C G25A A37U A40C C87U A97C	≤ -4.2
A17U A28U G46A C54U C57A G136A	≤ -4.2
C18G A28C A49C G50U C79A C85U A107U C118A G152U	≤ -4.2
C18A A52C C85A C93U C96G A121C U146C	≤ -4.2
A17U A37C C93G C96A	≤ -4.2
A17G C32G A52G A98G G100C C116A G133U	≤ -4.2
A17G A20U C35U U45A A47C G67U C85G U127G	≤ -4.2

Variant	polymerase ribozyme fitness (log ratio)
A17U C96G A142U U146A	-2.11
A17C U55G C57A G59C C85A A115G A119U	-2.46
A17G C38G C51A U78G U90G C131A	≤ -4.2
A17G A52C	-0.98
A17U A29C A41G G59C C85G	≤ -4.2
A17C G50U U56A G58C G84U	-1.22
A17U C38U C85A U139A G143A	≤ -4.2
A17G U55A G140U U146A	≤ -4.2
A17G U33C C75G C85G	≤ -4.2
C18G A23C U53A U127C U151G	≤ -4.2
C18G A22C A26C C76U C87U C129G	≤ -4.2
A17G C38U G81A C96A	0.341
A17G A41C C51A G81C G92A C96G U144C C149G	≤ -4.2
A17U A19U A37U U53A G58A C95A A121G A122C	-3.75
A17U G50U C57A C93G C131G	≤ -4.2
C18A U55A G68C U90G	≤ -4.2
A17U G80C C93A U101G	≤ -4.2
A17C G58A U82G C118U G133U	≤ -4.2
A17U A29U G74C G124U	≤ -4.2
A17G C75A C76A U90C C93G	≤ -4.2
A17U A37U G59C G81A A97G C116G	-1.87
A17G C54G G67U C93G G126U	≤ -4.2
C18A A21C A37C G81A C87G	≤ -4.2
A17G A28C G62U A64U C76U G92U U109G A119C A121G C131A	≤ -4.2

Variant	polymerase ribozyme fitness (log ratio)
A17U C35U C51U C103G	≤ -4.2
A17C G34A C96G A121G A122C U134C	-1.47
A17G C27A U53A G83C G140C	≤ -4.2
A17U A91U C103G C108U G124A A137C	≤ -4.2
C18G A24U A39C C63U G68A U78A U111C G140C	≤ -4.2
A17C C43U C63U G88C U144A	≤ -4.2
A17G U45A G50A G62U C79G G86U C103A	≤ -4.2
A17C G83U G86C C114A A137G	≤ -4.2
C18A C32G U53A C93A A121G U148G	≤ -4.2
A17G A29U A30C A40C G59U C87A U111G	≤ -4.2
A17G C51U G68A U82C C116U	≤ -4.2
A17U A41U A49C U61A U102G A107G C114G G141C	≤ -4.2
A17C G34U A47G G84A A110G	≤ -4.2
A17U A41C C51A C57G A66U	≤ -4.2
A17U A47G U82G C95U C96G G117C G141A	≤ -4.2
A17U C18U A19U A47U C63U U77C A91U C99G G141C	≤ -4.2
A17G C125A	0.215
A17C G42C U56G G88U C95U C96U A110C U139G	≤ -4.2
A17U U45A C57G G62A G88A G126U	≤ -4.2
A17C U31A G92U A98U G141A	0.253
A17G A40C A47U U55G G83A C131G	≤ -4.2
A17G C132G	-3.28
A17G U101A C105G	-3.18
A17G A52G G84A G94U G143A	≤ -4.2

Variant	polymerase ribozyme fitness (log ratio)
A17U C72U C99U	-1.38
A17G A24G A41C G80A C96U C99G U101G A138U G143U	≤ -4.2
C18A A26C C36U G88A G140C	≤ -4.2
A17U A113U	-1.99
A17U A23U C36G C57A G70U U78C C85U C103G A147C C149U	≤ -4.2
A17G A24U C51U A91U C123A	≤ -4.2
A17G A37C C43U C85G A147U U151C	≤ -4.2
A17U A19U A22U U61A G83A G84A G100U	≤ -4.2
A17C C85U	0.349
A17U A21C U44A A49C C72A U82A U134A	≤ -4.2
A17C U61G C72G C76U C87G	≤ -4.2
A17U A52U U55A U77G C93U U104A	≤ -4.2
A17G G50U C95U G124C G141A	-0.476
A17U A22C A30C C75U C108A U148A	≤ -4.2
C18A A20C G42A C57U C95U C132U A147U	≤ -4.2
A17G C32A G133C	≤ -4.2
A17U C75A	≤ -4.2
A17U G42U U44A U45C G84U G141A	≤ -4.2
A17U C43A C93A	≤ -4.2
A17U A40U G58U C96U G133A G143C	≤ -4.2
A17U G46A G50A G59C C93U G94A A113G C149A	≤ -4.2
A17U G68A G92U U146G	≤ -4.2
A17U C57A C79G C85A C125G G143A	≤ -4.2
A17U A40U G59C A73G C76A A91G C114A G124A A150U	≤ -4.2

Variant	polymerase ribozyme fitness (log ratio)
A17G A91U	≤ -4.2
A17U A49C U61A C63U C72U C93A G128U G141C	≤ -4.2
A17U G25U A47U U56A C96G G140A	≤ -4.2
A17U G48A C51G U55G C96G C105U C118U G136U G141U	≤ -4.2
C18G A26G G46A C57A C63G C95U	≤ -4.2
A17U U61C C79A G92A A97U A147U	≤ -4.2
A17G A37U C51U	-2.83
A17U A29U G48A C51U C96A A138G	≤ -4.2
C18A A23C C27U A28C C43G G86U	≤ -4.2
A17C G42A C57G G92U U102G C114U A121C	≤ -4.2
A17U G86C G88C C93A A98G U111G G136A	≤ -4.2
A17G U55A G88C C95G U148G	≤ -4.2
C18A C87U A91C	≤ -4.2
A17G C51U U56A C76G G88A G117U U146A C149U	≤ -4.2
A17G A49C U61A U82C A107U U145C	≤ -4.2
A17U C54U A89C C95A A107U C108U	≤ -4.2
A17G U53A C99G U130C	≤ -4.2
A17U A21U U55A A91C C95G A98U C108G	≤ -4.2
A17G C32U C35A G84A G100A C114A	≤ -4.2
C18A U31G C35G A39G C85G	≤ -4.2
A17G A23C C57U C79U A138C	≤ -4.2
A17U C27A A37U C75G G86A G133A	≤ -4.2
A17C G86C C95A G100C U127C C131A C132G G143U	≤ -4.2
C18G A29C G83A	≤ -4.2

Variant	polymerase ribozyme fitness (log ratio)
C18G A21U G80C C93G A107G U151G	≤ -4.2
A17U A40G C54U G83A A91C G126C	≤ -4.2
A17G A29C C75U G92A G140C	≤ -4.2
C18G A26G C93G	≤ -4.2
C18G A28G A29U A98G	≤ -4.2
A17U A24U C27A C57U G80U G94C A110U G126A G133C	≤ -4.2
A17U C116U	-0.46
A17G U31A U90C C93U C99G C125A A137C G143C	≤ -4.2
A17U C51G G83A U134C	-3.2
A17G C32G A91U G141A	≤ -4.2
A17U C32G G48A C79G G84U G86U C108U	≤ -4.2
C18G A26U C75A C87G C105G A120U	≤ -4.2
A17U C35U A47C G92C G128A U134C	≤ -4.2
A17U G58C A66C U77A	≤ -4.2
A17U C93U A97G G124A C131G U145A	≤ -4.2
A17U C54U C75G A97C C99U U104G A142C U151G	≤ -4.2
C18A A29C G67C C95G	≤ -4.2
C18A A30G G34A G71A G86U U139C	≤ -4.2
C18G A19U A22U A91G C123G G133C	≤ -4.2
A17C G88C G140C A147C	≤ -4.2
A17U A21C U82A C105G G128A G141A A142G	≤ -4.2
A17U G58A A91U C95G U102C A113C	≤ -4.2
A17G U45G C54U G94A C96G C108U A122U G141A	≤ -4.2
A17G G34U C35G A60G C99A U109C	≤ -4.2

Variant	polymerase ribozyme fitness (log ratio)
A17U G58C G71A A98G G126U C131A	≤ -4.2
A17G A60C C76A C93U C96U C123G G136U	≤ -4.2
A17G G25C U33G C43U C54U C76A C93U C99A A106G C114A A150C	≤ -4.2
A17U C36A G84A A142C G143C	≤ -4.2
A17U A29C U44A G94C	≤ -4.2
A17G G83U G124U G143A U148G	≤ -4.2
A17U C35U A97U G141A	-1.34
C18A A21C C85A A91U	≤ -4.2
C18A A39C C43U C76A A89C A91C C99G U144G	≤ -4.2
A17G A22G U56A	0.0483
A17U A20U C87G U102G U145G	≤ -4.2
A17U A19C A26C U33G A52U A110C U135G G141C	≤ -4.2
A17G A37U U56A A66G G74A U90A A98U U144A C149G	≤ -4.2
A17G C51U A106G A120C A122U	-1.36
A17G A21G U90C A147C A150U	≤ -4.2
A17U A30G U44G C75A U82G A97G U109C C129G A142G A147U	≤ -4.2
A17U A52C C79A C93G A97U A106G C116U	≤ -4.2
A17C U45G G59C A91U U104G A122C	≤ -4.2
A17U G50C C93G	≤ -4.2
A17U G59A A60G C85A U101A G143U	≤ -4.2
A17G A29G C96G	≤ -4.2
A17G C18U A49C A98U C99A C105U A120U	≤ -4.2
A17C C36A G65C G84U C85G C125U	≤ -4.2
